Data published in PubChem BioAssay AID686978 (National Center for Advancing Translational Sciences (NCATS), 2013).
Out of some 420,000 compounds screened, about 64,000 (15%) were called active. The shares of active, inactive and inconclusive entries below differ from those in the screen. Calls follow the shape of the dose curve; as a rule, active = well fitted inhibition curve with a large enough effect; inconclusive = small, poorly fitted or top-dose-only effect; inactive = flat fitted curve, though single readings scatter. Potencies of inconclusive entries are left out as doubtful fits.

Assay: qHTS for Inhibitors of human tyrosyl-DNA phosphodiesterase 1 (TDP1): qHTS in cells in absence of CPT; also: nearly all actives have a fitted effect of over 55% in size
Conditions: DT40 Tdp1-/- hTDP1 cells, no CPT, ATP luminescence, 48 h; activity change, negative = growth inhibition: at 46.2 µM (top of the series) unless noted
Outline: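 Growth of hTDP1-complemented DT40 Tdp1-knockout cells is measured by ATP luminescence after at least 48 hr compound exposure at 37 °C, with DMSO substituting for the 20 nM CPT used in the parallel screen.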
% is scaled to controls: 0 for no effect and ±100 for the full control effect; potency is read from the fitted curve at half-maximal effect; tags tell the direction and shape of the fitted curve.

| SMILES | Potency | activity change, negative = growth inhibition |
| --- | --- | --- |
| CC(C)OCC1CO1 (stereo unspecified) | inconclusive [inhibitor, partial curve] | – |
| Cc1cccc(C)c1NC(=O)C1CCN(S(C)(=O)=O)CC1 | – | inactive: -1.64% |
| CCOC(=O)c1sc(NC(=O)COC(=O)c2ccco2)nc1C | – | inconclusive: -35% [inhibitor] |
| COc1ccc(Nc2nc3ccccc3nc2NS(=O)(=O)c2ccc(C)cc2)c(OC)c1 | inconclusive [inhibitor, single point] | – |
| COc1cc(NC(C)=O)ccc1NC(=O)c1cc2ccccc2o1 | inconclusive [inhibitor, single point] | – |
| COc1ccccc1/C=C/CN1CCCC(CCC(=O)NCc2ccc(F)c(F)c2)C1 (stereo unspecified) | inconclusive [inhibitor, single point] | – |
| CCC(O)c1nc2ccccc2n1CCc1ccccc1 (stereo unspecified) | inconclusive [inhibitor, partial curve, poor fit] | – |
| COc1ccc(Cl)cc1NC(=O)CSc1nnc(CN2CCOCC2)n1-c1ccc(Cl)cc1 | active: 20.6 µM | – |
| CCOc1ccc(NCC(=O)Nc2ccc(C)cc2C)cc1 | – | inactive: -15.6% |
| CC(=O)Nc1ccc(NC(=O)COC(=O)c2cc(S(=O)(=O)N(C)C)ccc2N2CCCC2)cc1 | inconclusive [inhibitor, single point] | – |
| O=[N+]([O-])c1ccc(N2CCOCC2)nc1 | – | inactive: -1.17% |
| COC(=O)c1sc2cccc(F)c2c1S(=O)(=O)N1CCN(c2cccc(OC)c2)CC1 | inconclusive [inhibitor, single point] | – |
| CCOC(=O)c1cc(-c2ccccc2)n(CCC(=O)NCc2ccccc2Cl)c1C | active: 13 µM | – |
| Cc1cc(F)ccc1-c1cc(C(=O)NCC2CCCCC2)[nH]n1 | inconclusive [inhibitor, single point] | – |
| CCOc1ccc(NC(=O)CN(C)C(=O)CSCc2ccc(C)cc2)cc1OCC | inconclusive [inhibitor, single point] | – |
| COC(=O)[C@@]1(C(C)C)N=C(c2cc(OC)c(OC)c(OC)c2)[C@]2(O1)C(=O)N(C)c1ccccc12 | – | inconclusive: -37.8% [inhibitor] |
| COc1cccc2cc(S(=O)(=O)c3ccc(F)c(C)c3)c(=O)oc12 | – | inactive: -5.27% |
| O=C(NCCC1=CCCCC1)c1cc(-c2ccccn2)nc2ccccc12 | – | inactive: 8.59% |
| COc1ccc(NC2=NC(=S)N(c3cccc(C)c3)C23CCCCC3)cc1 | inconclusive [inhibitor, full curve, poor fit] | – |
| Clc1ccc(Cl)c(OCc2cc(-c3ccccc3Cl)on2)c1 | inconclusive [inhibitor, single point] | – |
| CC1CCN(S(=O)(=O)c2ccc(NC(=O)C3CCCCC3C(=O)O)cc2)CC1 (stereo unspecified) | inconclusive [inhibitor, single point] | – |
| [O-][N+]12CCCc3cccc(c31)CCC2 | inconclusive [inhibitor, single point] | – |
| Cc1ccc(Cn2nc(C)c(NC(=O)CSc3nc4c(c(C(F)(F)F)n3)CCc3ccccc3-4)c2C)cc1 | inconclusive [inhibitor, single point] | – |
| Cc1ccc(CN2CCC(CNC(=O)C3CCCN(c4ncnc5c4nc4n5CCCCC4)C3)CC2)cc1 (stereo unspecified) | inconclusive [inhibitor, single point] | – |

| SMILES | Potency | activity change, negative = growth inhibition |
| --- | --- | --- |
| CC1CCc2c(nc3ncnn3c2N2CCN(c3ccccc3)CC2)C1 (stereo unspecified) | inconclusive [inhibitor, single point] | – |
| Cn1c(CNc2ccc(Br)cc2)nc2ccccc21 | inconclusive [inhibitor, partial curve] | – |
| CCOC(=O)c1nc(Nc2ccccc2)c2ccccc2n1 | inconclusive [inhibitor, single point] | – |
| Fc1ccc(-c2nc3ccc(Br)cn3c2Cc2ccccc2C(F)(F)F)cc1 | inconclusive [inhibitor, partial curve, poor fit] | – |
| O/N=C1/CCc2nonc2/C1=N/O | inconclusive [inhibitor, partial curve] | – |
| Cc1ccc(C)c2[nH]c(=O)c(CCNS(=O)(=O)c3ccccc3)cc12 | – | inactive: -20.4% |
| N#CC1=C(N)NC(SCc2ccc(Br)cc2)=C(C#N)C12CCCCC2 | inconclusive [inhibitor, single point] | – |
| O=C(NCCCn1ccnc1)/C(=C\c1cccs1)NC(=O)c1ccco1 | – | inconclusive: -27.2% [inhibitor] |
| C#CCn1c(S(=O)(=O)Cc2ccccc2Cl)nc(-c2ccccc2)c1-c1ccccc1 | inconclusive [inhibitor, single point] | – |
| O=[N+]([O-])c1ccc(OCCOCCOc2ccc([N+](=O)[O-])cc2)cc1 | – | inactive: -0.517% |
| Cc1c(Cl)cccc1-c1ccc(CNCCCSc2nnnn2C)o1 | inconclusive [inhibitor, single point] | – |
| CCCCNC(=S)N/N=C/c1ccc(C#N)cc1 | inconclusive [inhibitor, partial curve] | – |
| Cc1cccc(Cn2cc(/C=C/[N+](=O)[O-])c3ccccc32)c1 | inconclusive [inhibitor, single point] | – |
| COC(=O)Nc1ccc2c(c1)N(C(=O)CCN1CCN3CCCC3C1)c1ccccc1S2 (stereo unspecified) | inconclusive [inhibitor, single point] | – |
| CCOC(=O)C1(C)CCN1C(=O)c1cc2ccccc2s1 (stereo unspecified) | inconclusive [inhibitor, partial curve, poor fit] | – |
| Cc1nc2nc(SCC(=O)N(C)Cc3ccccc3)nn2c(C)c1Cc1ccccc1Cl | inconclusive [inhibitor, single point] | – |
| Cc1cc(C)c(S(=O)(=O)N2CCC(n3c(C(F)(F)F)nc4cccnc43)CC2)c(C)c1 | inconclusive [inhibitor, partial curve] | – |
| Cc1ccc(/C=N/N2C(=S)SC(C)(C)C2N(O)C(=O)Nc2ccc([N+](=O)[O-])cc2)cc1 (stereo unspecified) | active: 18.4 µM | – |
| CCCC(=O)Nc1ccccc1NC(=O)c1ccc(OC)cc1 | – | inactive: -0.22% |
| CCCCN=C1CC(C)(C)CC(=O)/C1=C(/O)CCC | inconclusive [inhibitor, single point] | – |
| O=C(CCCN1C(=O)/C(=C/c2cccc(Br)c2)SC1=S)Nc1cccnc1 | active: 16.4 µM | – |
| CC(=O)N1CCCc2cc(S(=O)(=O)CCC(=O)N3CCN(c4cccc(C)c4)C(C)C3)ccc21 (stereo unspecified) | inconclusive [inhibitor, single point] | – |
| NC(=O)C1CCCN1S(=O)(=O)c1ccc2ccccc2c1 (stereo unspecified) | – | inactive: 18.4% |
| CCOC(=O)C1CCN(CC(=O)Nc2cc(C)c3c(=O)oc4ccccc4c3n2)CC1 | – | inactive: -28.4% |

| SMILES | Potency | activity change, negative = growth inhibition |
| --- | --- | --- |
| O=C(Nc1cccc(S(=O)(=O)NC2=NCCC2)c1)c1ccccc1 | inconclusive [inhibitor, single point] | – |
| Cc1cn2c(=O)cc(COc3cccc(NC(=O)c4ccc(C(C)(C)C)cc4)c3)nc2s1 | active: 16.4 µM | – |
| COc1cc(/C=N\Nc2nc3ccccc3[nH]2)cc(OC)c1OC | active: 11.6 µM | – |
| COc1ccc(S(=O)(=O)N2CCN(C(=O)c3ccc(C)o3)CC2)cc1 | inconclusive [inhibitor, partial curve] | – |
| CSc1ccc(C(=O)C2CCCN(C(=O)Cc3nonc3C)C2)cc1 (stereo unspecified) | inconclusive [inhibitor, single point] | – |
| C=CCn1c(COc2ccc(OC)cc2)nnc1SC(C)C(=O)NC1CC1 (stereo unspecified) | – | inactive: -23.4% |
| O=C1CC(c2cccc(Cl)c2)Cc2nc(N3CCOCC3)ncc21 (stereo unspecified) | active: 20.6 µM | – |
| COc1ccc(NC(=O)CNC(=O)c2ccc([N+](=O)[O-])cc2)cc1 | – | inactive: 13.2% |
| CC1(C)Cc2c(sc(NC(=O)C(=O)NCCCN3CCOCC3)c2C#N)CO1 | – | inactive: -9.83% |
| C=CCc1ccccc1OCCSc1nc(-c2cccs2)nc2cc(=O)[nH]n12 | inconclusive [inhibitor, single point] | – |
| CC(C(=O)N1CCOCC1)N1C(=O)c2cccc3cccc(c23)C1=O (stereo unspecified) | – | inactive: -23.1% |
| CCOC(=O)c1sc2nc3c(SCCC#N)cc(C(=O)c4cc(F)ccc4O)cn3c(=O)c2c1C | inconclusive [inhibitor, partial curve] | – |
| CCCn1c(N)c(C(=O)CN(C)CC(=O)Nc2c(Cl)cccc2Cl)c(=O)[nH]c1=O | active: 23.1 µM | – |
| Nc1ccc(S(=O)(=O)Nc2nccc(/C=C/c3ccc(Cl)cc3)n2)cc1 | – | inactive: -3.75% |
| O=C(Nc1ccc(OCc2cc(=O)n3c4c(sc3n2)CCCC4)cc1)c1cccc(F)c1 | inconclusive [inhibitor, single point] | – |
| Cc1noc(C)c1NC(=O)Nc1ccc2c(c1)C(=O)N([C@@H](C)CO)C[C@@H](C)[C@H](CN(C)C(=O)Nc1cccc3ccccc13)OCCCC[C@H](C)O2 | inconclusive [inhibitor, single point] | – |
| O=C(Nc1ccc2c(c1)CCC2)c1ccc(F)cc1 | – | inactive: 6.22% |
| CCc1c(C)sc2c1CCN(Cc1ccccc1)C2c1ccccc1 (stereo unspecified) | active: 2.91 µM | – |
| Cc1c(NC(=O)Nc2ccc(C(C)(C)C)cc2)c(=O)n(-c2ccccc2)n1C | – | inactive: -26.7% |
| CC(C)[C@H](NC(=O)c1ccccc1)C(=O)OCc1nnc(-c2ccccc2)o1 | active: 23.1 µM | – |
| O=C(CCn1cnc2onc(-c3ccc(F)cc3)c2c1=O)Nc1ccc(F)c(Cl)c1 | active: 14.6 µM | – |
| O=C(CCNS(=O)(=O)c1ccc(Br)cc1)NCc1ccc(Cl)cc1 | – | inactive: 0.498% |
| CCc1nc2c(OCCC3CCCCC3)cccn2c1N(C)C(=O)c1cccs1 | active: 20.6 µM | – |
